The supplement of paper PMC10126150
Sequences with one replicate were seen in a single cluster, so their values are uncertain.

Test system: ATP
Test: switch fluorescence ratio, 500 uM ATP over buffer (Cy3 cluster intensity, sum of 5 cycles each) (fold (ratio)); higher = stronger signal-on switching upon ATP binding; sequences stand for … in TCGTCGGCAGCGTCAGATGTGTATAAGAGACAGTTTTTTTTTTTTTTTTTTTTTTTTT…TC
Conditions: aptamer strand: ATP DNA aptamer (quencher-CACCTGGGGGAGTATTGCGGAGGAAGG + anchor), 100 nM annealed; ATP concentration: 500 uM; one replicate
Procedure, shortened: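 Exposure to 500 uM ATP lasted 15 min at 22 °C before imaging, and a selection-buffer image was taken beforehand, for Cy3-labelled switching-strand clusters on a modified Illumina MiSeq flow-cell annealed to 100 nM quencher-labelled ATP aptamer. Five buffer/ATP cycles were run with NaOH stripping and re-annealing between them. The fluorescence ratio per cluster is summed target-cycle over summed buffer-cycle Cy3 intensity, averaged per switch-domain sequence. Clusters outside 100-1000 RFU were excluded.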

Sequence | switch fluorescence ratio
GTCGCATAGT | 1.05
AGAGGACGAA | 0.996
TCATTTTATG | 1.04
GTTTGGCAG | 1.01
GCATAGGCAT | 1.02
GGCACGGATT | 1.04
TTATTGTGAA | 1
CAACGCACTA | 1.95
CCACGAAGCT | 1.05
AGCACCGTTT | 0.986
ATAGGAAGGC | 1.02
CACGGATGAC | 1.11
AAACAGCGAC | 1.1
TGCTAGACAA | 1.02
GTGTCTGCCA | 1.05
CGCTCGGGAA | 1.03
GTTCCAGTTG | 1.04
TTACGAAGGT | 0.969
AGACTATCAG | 1.03
GCCGTGGCCA | 1.01
CGACAAAGCA | 1.25
TGGGCTTAGG | 0.995
ATTCGTAAGA | 0.986
TGCGTGCTGA | 0.963
GGATGACCAA | 0.99
GCTGACGGTA | 1.08

Sequence | switch fluorescence ratio
TCTTCATTTC | 0.983
CTGCTAAGGG | 1.01
TATTACGACT | 1.04
TTAGAACCTG | 1.05
TACATGGAGG | 0.981
ACCTCTTTAA | 0.96
GCCCATCTAC | 1.04
ATAGTATGAA | 1.04
TAAAAGCAGA | 0.981
AATCGGCATG | 1.02
GAGGGCGGGT | 1.03
AGCTTCTGAA | 1.04
CGGGTTAATC | 1
ACGTATACT | 1.37
CTCAGCGAAT | 2.38
TGGTAGGCT | 0.957
GACTTGTGCA | 0.961
ACCCTGCG | 1.05
CGATTTGGGA | 1.03
ACAAATTCAG | 0.969
TAGGAGATCT | 0.959
TCTCCCTTTA | 1.08
GACACTCTGC | 1.09
CATTATAAGG | 0.996
AGTAAACGAG | 1.02
ACTGGGTAG | 0.992

Sequence | switch fluorescence ratio
ACCTACTGGA | 1.27
TTGCAAGCCC | 1.25
ACAGATAAGC | 1
TCGGTGTACG | 1.07
ATGAACCCGC | 1.01
ATCGGCTACG | 1.03
ATTCCTCT | 1.05
AGTGTAATTG | 1.02
ATGAAGAGAA | 1.03
TAGAGGAACA | 0.983
ATGTGACACA | 1.04
GGTCACAGCG | 0.956
GCAGGGG | 1.2
GGCAATGGCG | 1.03
TTGAGCCTTA | 0.976
GATATACACT | 1.12
TCGTCAAGGT | 1
TAACGTTCAA | 1.05
CTCCAGAATT | 0.993
GTCGACCTGA | 1.01
CCTGATAAGT | 0.967
GGGCAGAGCT | 0.995
TTACTTACAT | 1.32
GGGTCAATTT | 1.02
TGTATATACC | 1.05
CCTAGGCCGG | 1

Sequence | switch fluorescence ratio
CCTAAGATTC | 1.05
AATAATCGTA | 0.95
CGTTTTGCGC | 1.04
CGATTATCCA | 1.04
CTAGGGGAGG | 0.972
GACTTTGGCT | 1.02
TCCAGGAAGG | 1
TTGCCGCTTA | 1.08
CTCCAAAGTT | 1.12
TGCCTAGTTA | 0.983
CAGCGATGTT | 1.04
TAGTCCCGAG | 0.993
ATACTAACTT | 1.04
TTAAGTTTC | 0.982
GTCGTGAGTA | 0.987
GTATTTGA | 0.947
CCCTGGTATG | 1.12
TTTTTGCGAG | 1.01
ATGCCTATCG | 0.958
CGAATAACGG | 1
GCAAGTCGAT | 1.05
TCCTTGTGGC | 1.08
CGTCGAGAGA | 0.972
AGTATTACGA | 1.03
GTTGATAATA | 1
CCATACTAGC | 1.06

Sequence | switch fluorescence ratio
CCGCTACTTA | 4.28
GGTGTGAAGA | 1.05
GCATCAAAAT | 0.923
CCTAGGTGGC | 1.64
TCCATCACTT | 1.01
CAATGGGACT | 0.972
AGGACAGTGG | 1
GACTTCCCCG | 2.89
TGAGTATGTG | 1.07
GGTCCCAAAG | 0.986
ATCTGCGAGT | 1
TTGACTATGC | 0.964
CGGAAGTAGG | 0.951
GAGGGTTACC | 0.893
TTTTTCCAGG | 1.61
GCCGGCTTGG | 0.963
GACGGCCAC | 1.62
TAGGGAAGTG | 1.01
AGTGGGCAAT | 1.16
AAACTGTCTT | 0.929
AATCGCAGGC | 1.91
AGTTACGCAC | 1.86
ATGTTTTAA | 1.01
CTTATGGTCT | 1.01
CGCCATTTTA | 0.982
CCTATCAGCT | 1.18

Sequence | switch fluorescence ratio
TCTTGCAGTA | 1.09
AACAACGTAG | 0.986
AATCTCTCTG | 1.01
ATTGACCCAG | 1.03
TAATATAAC | 0.987
AGCCGATTTT | 1.01
TAAGGTCCTG | 1.01
CTCTTTTGTA | 0.979
ATAGTGCGTC | 1.06
AATGAGTCA | 0.984
ATCTTGTGTG | 0.961
ACGATATAGG | 1.15
AAGTAAGTAA | 0.932
CAGTGTGGGG | 0.983
TTACTCCGTG | 1.95
AAATGGTCAT | 0.943
TTTCTGGAGT | 1.87
CCAGGATACA | 1.01
TTGCGTGGTC | 1.12
GGGATCGTGG | 0.992
ACTATGCCCT | 1.02
AAAGTGACAG | 0.972
CAGAATACCT | 1.12
GGTGACCGCT | 0.992
GCCGAGGTCG | 1.06
TTCCTCTACC | 1.17

Sequence | switch fluorescence ratio
TAAAGCTATA | 1.02
TCTGAATAGG | 0.988
CGAGAGCGCC | 1.1
TGGCCGAGGG | 0.991
CGTGCGCCGG | 1.04
CGGTCACATC | 1.04
ATCCTTACCG | 1.19
AGCGCATTTT | 1.02
ATAAAAGTGG | 1
CCCTATAGCA | 1.23
CGAGAAAAGA | 0.986
TTGTTTGAAG | 1
CGTTGACTGG | 1.02
GGCGTGATTT | 1.03
ATGTACGTAT | 1.02
GGTGCGGGT | 1.02
GAGATAATGG | 1.02
GTCGGGTCTT | 0.998
TACTAGACGA | 1.22
GTATATTGTT | 0.936
AGTGATGTAT | 0.959
AACTGATAAT | 1.02
TAGGGCTTCC | 1.88
AGGCCGCTAT | 1.17
CAAGGATTCA | 1.03
AGAATTAGCA | 0.996

Sequence | switch fluorescence ratio
AACCTCCCCC | 2.09
TAGGCAGGTC | 0.977
GTCCGAGGTT | 0.993
ATATTTTAAA | 0.991
AGAACTTGAG | 1.01
GATGATCCGT | 1
CAAGTGTAAC | 1.01
TAAACAGTGG | 0.947
TTCCTCTGG | 1.26
CTAGTTCGCA | 1.08
TGTATTCGCT | 0.983
AGGAATCGTA | 1.02
TGTGTTCAAA | 1
TCACAGGCTA | 1.05
GTGTCATCTG | 0.957
TGTTCGACGA | 1.14
TAACGTTGA | 1.01
GCCACTAGGA | 1.03
TGGTGGCCTG | 1.01
